Data reported in patent publication US20250387505A1, “ANTI-FGFR3 ANTIBODY CONJUGATE AND MEDICAL USE THEREOF” (GENEQUANTUM HEALTHCARE (SUZHOU) CO., LTD., priority 2022, published 2025).

Molecular target: FGFR3 on AMB-BT-0050T cells (glioblastoma patient-derived cells with positive FGFR3 expression) (human (patient-derived cells)), P22607
Test: cell-based or functional assay

B1: ADC19 (A9Q conjugated with Linker-Payload 1) (antibody, human IgG1, lambda, DAR 3.62)
heavy: EVQLLESGGGLVQPGGSLRLSCAASGFTFSSYDMSWVRQAPGKGLEWVSGIYSGDGSIYYADSVKGRFTISRDNSKNTLYLQMNSLRAEDTAVYYCAKDGPMNEESRFDYWGQGTLVTVSS[human IgG1 constant region not written out]
light: QSVLTQPPSASGTPGQRVTISCSGSSSNIGNNYVSWYQQLPGTAPKLLIYADSKRPSGVPDRFSGSKSGTSASLAISGLRSEDEADYYCASWDYSLSGYVFGGGTKLTVLGQPKAAPSVTLFPPSSEELQANKATLVCLISDFYPGAVTVAWKADSSPVKAGVETTTPSKQSNNKYAASSYLSLTPEQWKSHRSYSCQVTHEGSTVEKTVAPTECGALPETGG
modifications: here or on the partner: C-terminal LPETGG: the peptide bond upstream of GG is cleaved by Sortase A and the chain is linked to the free N-terminal G3 of Linker-Payload 1 (two DXd payloads per linker)
- IC50 (nM), cytotoxicity on 3D single spheroids: 1 nM

B2: ADC20 (A9Q conjugated with Linker-Payload 2) (antibody, human IgG1, lambda, DAR 3.58)
heavy: B1 heavy
light: B1 light
modifications: here or on the partner: C-terminal LPETGG: the peptide bond upstream of GG is cleaved by Sortase A and the chain is linked to the free N-terminal G3 of Linker-Payload 2 (two payloads per linker)
- IC50 (nM), cytotoxicity on 3D single spheroids: 0.4 nM
